Some of the results follow. Sequences were assembled here from the parent chain. Values near 0.05 are background.
B1: TEV protease; numbered along this chain (parent)
chain: MGESLFKGPRDYNPISSSICHLTNESDGHTTSLYGIGFGPFIITNKHLFRRNNGTLVVQSLHGVFKVKDTTTLQQHLVDGRDMIIIRMPKDFPPFPQKLKFREPQREERICLVTTNFQTKSMSSMVSDTSCTFPSGDGIFWKHWIQTKDGQCGSPLVSTRDGFIVGIHSASNFTNTNNYFTSVPKNFMELLTNQEAQQWVSGWRLNADSVLWGGHKVFMVKPEEPFQPVKEATQL

Variants of: B1
Assay: raw area under fraction-flipped curve 0-4 h after induction (AUC4h, not background-subtracted), DNA-recorder readout of cleavage of the substrate (dimensionless); higher = more cleavage of the substrate by the protease variant
Details: temperature: 34 °C; time window: 0-4 h after rhamnose induction
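Also: Bxb1 expression induced with 0.2% (w/v) L-rhamnose at OD600 near 0.5, cultures sampled hourly, flipped fraction per protease–substrate barcode pair counted by paired-end Illumina sequencing.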

Variant	area with substrate ENLCFQS	area with substrate ENLEFQS	area with substrate ENLIFQS	area with substrate ENLKFQS	area with substrate ENLLFQS	area with substrate ENLNFQS	area with substrate ENLPFQS	area with substrate ENLRFQS	area with substrate ENLSFQS	area with substrate ENLDFQS	area with substrate ENLFFQS	area with substrate ENLGFQS	area with substrate ENLMFQS	area with substrate ENLWFQS	area with substrate ENLTFQS	area with substrate ENLVFQS	area with substrate ENLHFQS	area with substrate ENLQFQS
N172I	0.0595	0.0437	0.0457	0.0647	0.0585	0.0654	0.0458	0.0665	0.0556	–	–	–	–	–	–	–	–	–
N172T	0.0562	–	0.0842	–	–	0.0897	0.0558	–	–	0.067	0.0597	0.0648	0.0604	0.063	–	–	–	–
T174W	0.07	–	0.0616	0.059	0.0805	0.0664	–	0.0646	0.0479	0.0597	0.081	0.0613	0.0245	–	0.0401	0.0762	–	–
N175I	0.0499	0.0625	–	–	0.0603	0.0648	0.0502	0.0838	–	0.0607	0.092	0.0698	–	0.0683	–	–	0.0545	–
N178G	0.0448	–	0.088	–	–	0.0682	–	0.0484	–	0.059	–	–	–	0.0651	–	0.075	–	–
F180M	0.126	–	–	–	–	0.0638	–	0.0657	0.023	0.0544	–	0.0653	–	0.0685	–	–	0.0607	0.0496
Q197A	0.0591	0.109	0.056	–	–	0.0654	0.0526	0.0744	–	0.0554	0.0938	0.083	–	–	–	–	0.0403	0.0497
G202D	0.0665	0.053	0.0569	0.0682	0.0457	0.0599	–	0.0856	0.0451	–	0.0554	0.0861	–	–	–	0.0608	–	0.0724
A207Q	0.0702	–	0.0746	–	0.0519	–	–	0.0621	–	0.0786	0.103	–	–	–	–	–	–	–
L211A	0.0791	–	–	0.0758	–	0.0636	–	–	–	0.0626	0.0715	–	–	–	–	–	–	0.0785
G213V	0.0635	–	–	0.0616	0.0525	0.0811	–	–	–	–	0.0971	0.0739	–	–	–	–	0.0636	–
G214P	0.0517	–	–	0.0563	–	0.0609	0.0334	–	0.0592	0.0569	0.059	–	–	–	–	0.0418	–	–
E223S	0.0738	0.084	–	0.0867	–	–	0.0635	0.083	0.0681	0.065	0.0922	–	–	0.0709	–	–	0.0802	0.044
P225H	0.0745	–	–	0.0719	0.0748	0.076	0.0551	–	0.0613	–	0.0804	–	0.0695	–	–	–	0.0692	–
P228K	0.0856	0.0661	–	0.079	0.0635	0.0631	0.0391	–	–	–	0.131	–	0.0808	0.0627	0.0493	–	0.0673	–
V229A	0.0863	0.0607	0.0763	0.0739	–	0.0707	0.0466	0.0812	–	0.0761	0.101	0.0722	–	0.0532	–	0.0747	0.0648	0.0675
K230H	0.0682	–	–	0.0904	–	0.0772	0.0642	–	0.0859	0.0676	–	–	–	0.0255	–	–	0.0693	–
E231F	0.0607	–	–	0.0703	0.0851	–	–	–	0.0504	0.0805	–	–	–	–	–	0.0763	0.0782	0.0646

From the supplement of paper PMC12217912
